# This is one part of the list.
# B1: OGAA (protein)
# chain: MVQKESQATLEERESELSSNPAASAGASLEPPAAPAPGEDNPAGAGGAAVAGAAGGARRFLCGVVEGFYGRPWVMEQRKELFRRLQKWELNTYLYAPKDDYKHRMFWREMYSVEEAEQLMTLISAAREYEIEFIYAISPGLDITFSNPKEVSTLKRKLDQVSQFGCRSFALLFADIDHNMCAADKEVFSSFAHAQVSITNEIYQYLGEPETFLFCPTEYCGTFCYPNVSQSPYLRTVGEKLLPGIEVLWTGPKVVSKEIPVESIEEVSKIIKRAPVIWDNIHANDYDQKRLFLGPYKGRSTELIPRLKGVLTNPNCEFEANYVAIHTLATWYKSNMNGVRKDVVMTDSEDSTVSIQIKLENEGSDEDIETDVLYSPQMALKLALTEWLQEFGVPHQY
# Legend:
# Test in all cases: glycan array binding signal (z-score within array); higher = stronger binding
# Details in all cases: glycan notation: IUPAC condensed, linker removed
# [1] = molecular target: Gal(b1-3)GlcNAc(b1-6)[Gal(b1-3)]GalNAc
# How it was run: (§1)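 The binding signal is a Z-score computed within each array and averaged over linkers. Arrays of the same protein sequence at different concentrations or buffers were also averaged together. Data originate from 3228 arrays in the Consortium for Functional Glycomics database, kept only where the protein sequence was available.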
# Gal(b1-3)GlcNAc6S = molecular target: Gal(b1-3)GlcNAc6S
# How it was run: as §1
# [2] = molecular target: Gal(b1-3)[Fuc(a1-4)]GlcNAc
# How it was run: as §1
# [3] = molecular target: Gal(b1-3)[Fuc(a1-4)]GlcNAc(b1-2)Man
# How it was run: as §1
# [4] = molecular target: Gal(b1-3)[Fuc(a1-4)]GlcNAc(b1-2)Man(a1-3)[Gal(b1-3)[Fuc(a1-4)]GlcNAc(b1-2)Man(a1-6)]Man(b1-4)GlcNAc(b1-4)[Fuc(a1-6)]GlcNAc
# How it was run: as §1
# [5] = molecular target: Gal(b1-3)[Fuc(a1-4)]GlcNAc(b1-3)Gal(b1-3)[Fuc(a1-4)]GlcNAc
# How it was run: as §1
# [6] = molecular target: Gal(b1-3)[Fuc(a1-4)]GlcNAc(b1-3)Gal(b1-4)[Fuc(a1-3)]GlcNAc
# How it was run: as §1
# [7] = molecular target: Gal(b1-3)[Fuc(a1-4)]GlcNAc(b1-6)GalNAc
# How it was run: as §1
# [8] = molecular target: Gal(b1-3)[GlcNAc(b1-6)]GalNAc
# How it was run: as §1
# [9] = molecular target: Gal(b1-3)[Neu5Ac(a2-6)]GalNAc
# How it was run: as §1
# [10] = molecular target: Gal(b1-3)[Neu5Ac(a2-6)]GlcNAc(b1-4)Gal(b1-4)Glc
# How it was run: as §1
# [11] = molecular target: Gal(b1-3)[Neu5Ac(b2-6)]GalNAc
# How it was run: as §1
# Gal(b1-4)Gal = molecular target: Gal(b1-4)Gal
# How it was run: as §1
# [12] = molecular target: Gal(b1-4)GalNAc(a1-3)[Fuc(a1-2)]Gal(b1-4)GlcNAc
# How it was run: as §1
# [13] = molecular target: Gal(b1-4)GalNAc(b1-3)[Fuc(a1-2)]Gal(b1-4)GlcNAc
# How it was run: as §1
# Gal(b1-4)Glc = molecular target: Gal(b1-4)Glc
# How it was run: as §1
# Gal(b1-4)Glc6S = molecular target: Gal(b1-4)Glc6S
# How it was run: as §1
# Gal(b1-4)GlcNAc = molecular target: Gal(b1-4)GlcNAc
# How it was run: as §1
# [14] = molecular target: Gal(b1-4)GlcNAc(a1-6)Gal(b1-4)GlcNAc
# How it was run: as §1
# Gal(b1-4)GlcNAc(b1-2)Man = molecular target: Gal(b1-4)GlcNAc(b1-2)Man
# How it was run: as §1
# [15] = molecular target: Gal(b1-4)GlcNAc(b1-2)Man(a1-3)Man(b1-4)GlcNAc(b1-4)GlcNAc
# How it was run: as §1
# [16] = molecular target: Gal(b1-4)GlcNAc(b1-2)Man(a1-3)[Gal(b1-4)GlcNAc(b1-2)Man(a1-6)]Man(b1-4)GlcNAc(b1-4)GlcNAc
# How it was run: as §1
# [17] = molecular target: Gal(b1-4)GlcNAc(b1-2)Man(a1-3)[Gal(b1-4)GlcNAc(b1-2)Man(a1-6)]Man(b1-4)GlcNAc(b1-4)[Fuc(a1-6)]GlcNAc
# How it was run: as §1
# [18] = molecular target: Gal(b1-4)GlcNAc(b1-2)Man(a1-3)[Gal(b1-4)GlcNAc(b1-2)Man(a1-6)][Gal(b1-4)GlcNAc(b1-4)]Man(b1-4)GlcNAc(b1-4)[Fuc(a1-6)]GlcNAc
# How it was run: as §1
# [19] = molecular target: Gal(b1-4)GlcNAc(b1-2)Man(a1-3)[Gal(b1-4)GlcNAc(b1-2)Man(a1-6)][GlcNAc(b1-4)]Man(b1-4)GlcNAc(b1-4)[Fuc(a1-6)]GlcNAc
# How it was run: as §1
# [20] = molecular target: Gal(b1-4)GlcNAc(b1-2)Man(a1-3)[GlcNAc(b1-2)Man(a1-6)]Man(b1-4)GlcNAc(b1-4)GlcNAc
# How it was run: as §1
# [21] = molecular target: Gal(b1-4)GlcNAc(b1-2)Man(a1-3)[GlcNAc(b1-4)][Gal(b1-4)GlcNAc(b1-2)Man(a1-6)]Man(b1-4)GlcNAc(b1-4)GlcNAc
# How it was run: as §1
# [22] = molecular target: Gal(b1-4)GlcNAc(b1-2)Man(a1-3)[Man(a1-6)]Man(b1-4)GlcNAc(b1-4)GlcNAc
# How it was run: as §1
# [23] = molecular target: Gal(b1-4)GlcNAc(b1-2)Man(a1-6)Man(b1-4)GlcNAc(b1-4)GlcNAc
# How it was run: as §1
# [24] = molecular target: Gal(b1-4)GlcNAc(b1-2)Man(a1-6)[GlcNAc(b1-2)Man(a1-3)]Man(b1-4)GlcNAc(b1-4)GlcNAc
# How it was run: as §1
# [25] = molecular target: Gal(b1-4)GlcNAc(b1-2)Man(a1-6)[Man(a1-3)]Man(b1-4)GlcNAc(b1-4)GlcNAc
# How it was run: as §1
# [26] = molecular target: Gal(b1-4)GlcNAc(b1-2)[Gal(b1-4)GlcNAc(b1-4)]Man(a1-3)[Gal(b1-4)GlcNAc(b1-2)Man(a1-6)]Man(b1-4)GlcNAc(b1-4)GlcNAc
# How it was run: as §1
# [27] = molecular target: Gal(b1-4)GlcNAc(b1-2)[Gal(b1-4)GlcNAc(b1-4)]Man(a1-3)[Gal(b1-4)GlcNAc(b1-2)[Gal(b1-4)GlcNAc(b1-6)]Man(a1-6)]Man(b1-4)GlcNAc(b1-4)GlcNAc
# How it was run: as §1
# [28] = molecular target: Gal(b1-4)GlcNAc(b1-2)[Gal(b1-4)GlcNAc(b1-4)]Man(a1-3)[GlcNAc(b1-4)][Gal(b1-4)GlcNAc(b1-2)Man(a1-6)]Man(b1-4)GlcNAc(b1-4)GlcNAc
# How it was run: as §1
# [29] = molecular target: Gal(b1-4)GlcNAc(b1-2)[Gal(b1-4)GlcNAc(b1-4)]Man(a1-3)[GlcNAc(b1-4)][Gal(b1-4)GlcNAc(b1-2)[Gal(b1-4)GlcNAc(b1-6)]Man(a1-6)]Man(b1-4)GlcNAc(b1-4)GlcNAc
# How it was run: as §1
# [30] = molecular target: Gal(b1-4)GlcNAc(b1-2)[Gal(b1-4)GlcNAc(b1-6)]Man(a1-6)[Gal(b1-4)GlcNAc(b1-2)Man(a1-3)]Man(b1-4)GlcNAc(b1-4)GlcNAc
# How it was run: as §1
# [31] = molecular target: Gal(b1-4)GlcNAc(b1-2)[Gal(b1-4)GlcNAc(b1-6)]Man(a1-6)[Gal(b1-4)GlcNAc(b1-2)Man(a1-3)]Man(b1-4)GlcNAc(b1-4)[Fuc(a1-6)]GlcNAc
# How it was run: as §1
binder,measurement,setting,value
B1,glycan array binding signal (z-score),[1],-0.059
same,glycan array binding signal (z-score),Gal(b1-3)GlcNAc6S,-0.088
same,glycan array binding signal (z-score),[2],-0.065
same,glycan array binding signal (z-score),[3],0.177
same,glycan array binding signal (z-score),[4],0.357
same,glycan array binding signal (z-score),[5],-0.106
same,glycan array binding signal (z-score),[6],-0.068
same,glycan array binding signal (z-score),[7],-0.104
same,glycan array binding signal (z-score),[8],-0.1
same,glycan array binding signal (z-score),[9],-0.044
same,glycan array binding signal (z-score),[10],-0.076
same,glycan array binding signal (z-score),[11],-0.096
same,glycan array binding signal (z-score),Gal(b1-4)Gal,-0.15
same,glycan array binding signal (z-score),[12],-0.108
same,glycan array binding signal (z-score),[13],-0.153
same,glycan array binding signal (z-score),Gal(b1-4)Glc,0.005
same,glycan array binding signal (z-score),Gal(b1-4)Glc6S,-0.099
same,glycan array binding signal (z-score),Gal(b1-4)GlcNAc,-0.02
same,glycan array binding signal (z-score),[14],-0.062
same,glycan array binding signal (z-score),Gal(b1-4)GlcNAc(b1-2)Man,-0.078
same,glycan array binding signal (z-score),[15],-0.126
same,glycan array binding signal (z-score),[16],-0.089
same,glycan array binding signal (z-score),[17],-0.041
same,glycan array binding signal (z-score),[18],-0.076
same,glycan array binding signal (z-score),[19],-0.009
same,glycan array binding signal (z-score),[20],-0.052
same,glycan array binding signal (z-score),[21],-0.136
same,glycan array binding signal (z-score),[22],-0.071
same,glycan array binding signal (z-score),[23],-0.092
same,glycan array binding signal (z-score),[24],-0.081
same,glycan array binding signal (z-score),[25],-0.022
same,glycan array binding signal (z-score),[26],-0.128
same,glycan array binding signal (z-score),[27],-0.148
same,glycan array binding signal (z-score),[28],0.029
same,glycan array binding signal (z-score),[29],0.085
same,glycan array binding signal (z-score),[30],-0.08
same,glycan array binding signal (z-score),[31],0.085

# From the supplement of paper PMC8728848
